Reference: article PMC12095592 (Communications Biology, 2025)

Legend:
full length DIAPH1 = full length DIAPH1 (human, UniProt O60610); assay: ELISA
[1] = target: GDID (GBD-DID construct of human DIAPH1, residues 83-380) (human, UniProt O60610 83-380); assay: ELISA

Chain of full length DIAPH1 (O60610 whole entry, the tested form may be a part): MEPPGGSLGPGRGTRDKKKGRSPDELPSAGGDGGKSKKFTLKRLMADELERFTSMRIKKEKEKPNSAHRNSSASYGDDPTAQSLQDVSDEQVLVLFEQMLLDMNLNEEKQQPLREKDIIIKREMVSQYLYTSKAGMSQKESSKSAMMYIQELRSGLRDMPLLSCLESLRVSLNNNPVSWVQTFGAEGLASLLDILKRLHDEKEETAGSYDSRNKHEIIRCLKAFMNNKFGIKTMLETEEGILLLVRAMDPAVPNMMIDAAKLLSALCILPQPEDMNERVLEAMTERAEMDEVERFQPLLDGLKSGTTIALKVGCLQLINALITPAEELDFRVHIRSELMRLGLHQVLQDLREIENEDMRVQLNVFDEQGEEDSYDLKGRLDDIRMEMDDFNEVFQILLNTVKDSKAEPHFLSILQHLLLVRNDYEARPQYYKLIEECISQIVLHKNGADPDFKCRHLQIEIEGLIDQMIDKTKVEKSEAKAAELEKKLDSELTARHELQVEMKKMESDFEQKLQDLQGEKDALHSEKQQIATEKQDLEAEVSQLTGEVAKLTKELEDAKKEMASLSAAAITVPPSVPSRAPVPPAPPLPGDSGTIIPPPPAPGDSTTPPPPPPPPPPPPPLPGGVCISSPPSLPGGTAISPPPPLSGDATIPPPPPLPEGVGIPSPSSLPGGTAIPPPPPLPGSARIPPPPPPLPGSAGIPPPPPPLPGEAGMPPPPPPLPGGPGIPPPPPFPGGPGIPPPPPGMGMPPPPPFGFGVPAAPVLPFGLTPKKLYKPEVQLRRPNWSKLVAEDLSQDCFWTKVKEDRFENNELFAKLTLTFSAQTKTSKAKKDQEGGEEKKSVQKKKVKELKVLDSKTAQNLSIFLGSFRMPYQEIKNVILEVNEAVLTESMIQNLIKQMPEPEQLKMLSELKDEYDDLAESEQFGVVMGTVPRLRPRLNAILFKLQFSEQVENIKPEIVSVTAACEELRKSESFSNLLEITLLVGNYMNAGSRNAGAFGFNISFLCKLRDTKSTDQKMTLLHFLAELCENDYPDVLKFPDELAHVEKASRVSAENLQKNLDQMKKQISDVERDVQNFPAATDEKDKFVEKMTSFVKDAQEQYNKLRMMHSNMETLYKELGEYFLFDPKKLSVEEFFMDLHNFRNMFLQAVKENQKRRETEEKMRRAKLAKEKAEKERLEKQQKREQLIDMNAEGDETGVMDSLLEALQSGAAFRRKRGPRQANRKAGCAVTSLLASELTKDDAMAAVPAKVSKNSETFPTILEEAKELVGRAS

B1: RhoA^Q63L (natural protein)
chain: not shown
**Q.** For B1, which Kd (full length DIAPH1) is on record?
**A.** 450 ± 40 nM

**Q.** And the Kd [1]?
**A.** 8.9 ± 2.4 nM
